The other results are listed elsewhere or left out. One pool of 16,384 single-stranded DNAs met each Rep nickase domain in vitro for 1 h at 37 °C with 3 µM enzyme; only the middle of the 90-letter strands is printed. A value is the log2 ratio of uncut reads to the pool without enzyme; the lower, the more was cut; hits are not called. Shares of all reads are compared, so uncut sequences can rise above 0 when many others are cut.
How the values were obtained:
Assay in all cases: uncleaved DNA left, log2 of reads against the no-enzyme library (log2 ratio); higher = less cleavage (more negative = more Rep cleavage of the k-mer); sequences stand for … in CTCGTCCG…ACCGGAGA
[1] = tested on: T1, Rep nickase domain of Muscovy duck circovirus
T1 sequence (Rep 1-111, printed without the tag): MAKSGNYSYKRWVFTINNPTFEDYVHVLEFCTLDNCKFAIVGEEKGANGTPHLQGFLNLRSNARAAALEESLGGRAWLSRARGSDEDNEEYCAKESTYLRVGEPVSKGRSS
Experimental: (§1)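 A pool of 90-nt single-stranded DNAs with seven random bases just before the constant AC of the nick site (name = the seven bases) was cut by 3 µM recombinant His6-SUMO-tagged Rep nickase domain (300 nM DNA, 50 mM HEPES pH 8.0, 50 mM NaCl, 1 mM MnCl2, 1 h, 37 °C, three replicates). Uncut DNA was amplified and sequenced.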

[2] = tested on: T2, Rep nickase domain of banana bunchy top virus
T2 sequence (Rep 1-94, printed without the tag): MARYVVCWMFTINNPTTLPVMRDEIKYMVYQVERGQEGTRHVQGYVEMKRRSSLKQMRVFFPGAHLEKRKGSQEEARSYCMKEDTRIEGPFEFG
Experimental: as §1

[3] = tested on: T3, Rep nickase domain of cabbage leaf curl virus
T3 sequence (Rep 1-116, printed without the tag): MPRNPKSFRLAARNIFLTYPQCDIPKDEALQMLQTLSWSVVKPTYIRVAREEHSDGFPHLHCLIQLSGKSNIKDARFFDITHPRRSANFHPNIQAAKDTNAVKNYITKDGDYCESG
Experimental: as §1

[4] = tested on: T4, Rep nickase domain of chickpea chlorotic dwarf virus
T4 sequence (Rep 1-124, printed without the tag): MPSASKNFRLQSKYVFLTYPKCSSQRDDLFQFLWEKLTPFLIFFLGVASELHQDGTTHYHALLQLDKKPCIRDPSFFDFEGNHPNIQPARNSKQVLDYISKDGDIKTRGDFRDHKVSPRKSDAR
Experimental: as §1

[5] = tested on: T5, Rep nickase domain of faba bean necrotic yellows virus
T5 sequence (Rep 1-98, printed without the tag): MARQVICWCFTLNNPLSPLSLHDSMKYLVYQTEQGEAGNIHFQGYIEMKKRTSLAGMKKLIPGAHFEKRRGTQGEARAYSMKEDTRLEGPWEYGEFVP
Experimental: as §1

[6] = tested on: T6, Rep nickase domain of maize striate mosaic virus
T6 sequence (Rep 1-117, printed without the tag): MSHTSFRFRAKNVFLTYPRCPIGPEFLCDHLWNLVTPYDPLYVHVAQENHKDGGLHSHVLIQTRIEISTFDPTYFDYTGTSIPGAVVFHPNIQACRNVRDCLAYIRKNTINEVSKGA
Experimental: as §1

[7] = tested on: T7, Rep nickase domain of porcine circovirus 2
T7 sequence (Rep 2-116, printed without the tag): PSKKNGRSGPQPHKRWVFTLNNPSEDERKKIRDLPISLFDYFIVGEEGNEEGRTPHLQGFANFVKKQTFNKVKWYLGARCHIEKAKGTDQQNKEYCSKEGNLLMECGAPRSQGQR
Experimental: as §1

[8] = tested on: T8, Rep nickase domain of tomato golden mosaic virus
T8 sequence (Rep 1-124, printed without the tag): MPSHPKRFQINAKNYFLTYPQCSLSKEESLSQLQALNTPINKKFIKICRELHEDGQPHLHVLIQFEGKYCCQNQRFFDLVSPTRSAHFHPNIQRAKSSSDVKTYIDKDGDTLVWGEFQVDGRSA
Experimental: as §1

[9] = tested on: T9, Rep nickase domain of tomato yellow leaf curl virus
T9 sequence (Rep 1-136, printed without the tag): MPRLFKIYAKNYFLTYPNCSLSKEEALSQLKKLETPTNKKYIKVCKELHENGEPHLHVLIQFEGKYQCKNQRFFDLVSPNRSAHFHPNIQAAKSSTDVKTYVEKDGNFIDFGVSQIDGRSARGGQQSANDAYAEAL
Experimental: as §1

[10] = tested on: T10, Rep nickase domain of wheat dwarf virus
T10 sequence (Rep 1-137, printed without the tag): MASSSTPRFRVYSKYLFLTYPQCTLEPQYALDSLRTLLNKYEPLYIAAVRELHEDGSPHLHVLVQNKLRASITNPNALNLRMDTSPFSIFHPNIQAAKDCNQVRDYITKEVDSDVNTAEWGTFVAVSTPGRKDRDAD
Experimental: as §1

Row | Sequence | uncleaved DNA left (log2) [1] | uncleaved DNA left (log2) [2] | uncleaved DNA left (log2) [3] | uncleaved DNA left (log2) [4] | uncleaved DNA left (log2) [5] | uncleaved DNA left (log2) [6] | uncleaved DNA left (log2) [7] | uncleaved DNA left (log2) [8] | uncleaved DNA left (log2) [9] | uncleaved DNA left (log2) [10]
1 | GCGGTAG | 0.082 | 0.0517 | -0.0914 | 0.294 | 0.0813 | -0.298 | 0.141 | -0.0379 | -0.014 | -0.0318
2 | GACCTCA | 0.00726 | 0.0149 | 0.148 | -0.0486 | -0.00138 | 0.566 | -0.0119 | 0.0835 | 0.0612 | 0.0829
3 | CTATGAT | -0.466 | 0.0238 | -0.479 | -0.0617 | 0.0315 | 0.745 | -1.2 | 0.052 | 0.00634 | 0.0859
4 | CTAGGGA | 0.0582 | 0.123 | 0.422 | 0.773 | 0.0728 | 0.643 | 0.0843 | 0.0456 | -0.0228 | 0.0743
5 | AACAGCG | 0.0702 | 0.0422 | -0.526 | 0.925 | 0.217 | -0.0582 | 0.234 | 0.0249 | 0.114 | -0.0421
6 | CGATTCA | 0.0251 | 0.0599 | 0.06 | -0.641 | 0.129 | -0.289 | 0.0534 | -0.0174 | 0.102 | 0.176
7 | AACACAG | -0.0738 | -0.0044 | -0.687 | -0.61 | -0.0442 | -1.16 | 0.186 | -0.0511 | -0.0212 | -0.0911
8 | GAAAACA | -0.00675 | 0.138 | 0.324 | -1.49 | 0.0405 | 0.691 | 0.0839 | 0.123 | 0.0429 | 0.0677
9 | AGCCGAA | -0.16 | -0.156 | -0.0141 | 0.219 | -0.145 | -0.00552 | -0.412 | -0.219 | -0.193 | -0.0703
10 | GATCATC | 0.0367 | 0.0927 | 0.369 | 1.06 | -0.0274 | 1.18 | 0.141 | -0.123 | 0.181 | 0.282
11 | GGGTTTT | -0.102 | 0.0854 | 0.705 | 1.64 | 0.0443 | 2.14 | -2.17 | 0.0296 | 0.0783 | 0.158
12 | GAGAGCT | 0.239 | 0.00206 | 0.207 | -0.0788 | -0.0332 | 0.488 | -2.3 | 0.119 | 0.0806 | 0.175
13 | TAGGCAC | 0.0577 | 0.0337 | -0.0377 | 0.4 | -0.094 | 0.184 | -0.0397 | 0.0443 | -0.00321 | 0.161
14 | AGGCCTT | -0.032 | 0.0863 | 0.792 | 1.34 | -0.0438 | 1.97 | -0.0124 | -0.0262 | 0.0299 | 0.123
15 | ATACTGC | 0.0486 | 0.0387 | -0.334 | -0.503 | 0.0608 | -0.915 | 0.242 | 0.121 | 0.0511 | 0.0886
16 | CCCGAGA | 0.172 | 0.095 | 1.2 | 1.83 | -0.0407 | 2.25 | 0.239 | 0.11 | 0.184 | 0.337

Row | Sequence | uncleaved DNA left (log2) [1] | uncleaved DNA left (log2) [2] | uncleaved DNA left (log2) [3] | uncleaved DNA left (log2) [4] | uncleaved DNA left (log2) [5] | uncleaved DNA left (log2) [6] | uncleaved DNA left (log2) [7] | uncleaved DNA left (log2) [8] | uncleaved DNA left (log2) [9] | uncleaved DNA left (log2) [10]
17 | GATGAGT | 0.178 | 0.0929 | -0.00673 | -0.243 | 0.126 | -0.212 | 0.109 | 0.226 | 0.168 | 0.0552
18 | CTGGGTC | 0.0768 | 0.0328 | 0.453 | 0.573 | -0.17 | 0.72 | 0.118 | -0.0868 | 0.0138 | -0.0409
19 | AGTCTAC | 0.042 | -0.201 | -0.141 | -1.31 | -0.0221 | -0.0747 | -0.195 | -0.107 | 0.00393 | -0.0238
20 | TGTTAGT | -2.86 | -0.189 | -0.0172 | -0.489 | -0.04 | -0.615 | -3.13 | -0.0968 | 0.0533 | -0.0161
21 | CTCCGTA | 0.0528 | 0.0517 | 0.000593 | -0.155 | 0.081 | -0.188 | 0.0813 | -0.0368 | 0.0923 | 0.0217
22 | CTTTATG | -0.0417 | -0.0443 | -0.732 | -0.498 | 0.0516 | -1.17 | 0.0473 | -0.187 | -0.0528 | -0.0884
23 | GCATTTA | 0.125 | 0.186 | 0.00221 | -0.297 | 0.12 | 0.0631 | 0.13 | 0.133 | 0.0909 | 0.174
24 | GTTCGCG | -0.0699 | -0.0611 | -0.862 | 0.214 | 0.00867 | -0.717 | 0.08 | -0.169 | -0.0613 | -0.292
25 | CGGACAC | 0.0253 | -0.0489 | 0.747 | 1.76 | -0.0858 | 2.14 | 0.158 | -0.132 | -0.0721 | 0.0457
26 | ACCTAAC | 0.0434 | 0.11 | -0.548 | -1.38 | 0.0394 | -0.877 | 0.0544 | 0.0614 | 0.0768 | 0.146
27 | ACCGATG | -0.0141 | 0.0743 | -0.436 | -0.232 | -0.0212 | -1.08 | 0.0506 | 0.173 | 0.0385 | -0.0682
28 | CTAAGAA | 0.167 | 0.206 | -0.0806 | -0.954 | 0.101 | -0.72 | 0.156 | 0.126 | 0.00153 | 0.0351
29 | AGTTTGC | 0.033 | -0.0557 | -0.719 | -0.273 | -0.0498 | -1.22 | 0.0355 | -0.106 | 0.0124 | -0.206
30 | TCTGGAG | 0.109 | -0.00657 | -0.701 | -0.556 | 0.0285 | -1.11 | 0.157 | 0.0165 | 0.0214 | -0.123
31 | TTCTACA | -0.0859 | -0.0174 | -0.0539 | -2.35 | -0.108 | 0.131 | -0.558 | -0.0937 | -0.0998 | -0.069
